Reference: the supplement of paper PMC12645437, “Orthogonal IMiD-Degron Pairs Induce Selective Protein Degradation in Cells” (ACS Chemical Biology, 2025)
This is one part of the list.

The sequences below were run against no compound (DMSO) (assay: log2 fold change of degron read counts, EGFP-low vs EGFP+ sorted cells; higher = lower degron-EGFP level without compound (poor expression or instability)). Conditions: compound: DMSO control; 18 h.
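Note: jurkat cells carrying a lentiviral library of mutant zinc finger degrons fused to EGFP plus mCherry, mCherry+ cells FACS sorted, degron abundance counted by next-generation sequencing.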

| Sequence | log2 fold change of degron read counts |
| --- | --- |
| FMCNQCGRIFTQKGNLLRHIKL | 0.817 |
| FWCEQCGAPFTQKGNLLRHIKL | 0.291 |
| LQCPICGFHCTQKGNLLRHIKL | 0.741 |
| FLCSVCGHAFTQKGNLLRHIKL | -0.625 |
| FFCEICGRDFTQKGNLLRHIKL | -2.4 |
| FNCNQCGHEFTQKGNLLRHIKL | -0.248 |
| FNCPICGAYFTQKGNLLRHIKL | 0.819 |
| FACNVCGACFTQKGNLLRHIKL | -0.628 |
| LWCPICGFHCTQKGNLLRHIKL | 2.31 |
| FKCPQCGAAFTQKGNLLRHIKL | -0.983 |
| FQCDVCGADFTQKGNLLRHIKL | -1.89 |
| FRCSVCGHKFTQKGNLLRHIKL | -0.721 |
| FDCPICGAVFTQKGNLLRHIKL | 0.00925 |
| FHCPICGHVFTQKGNLLRHIKL | -0.422 |
| FRCPICGHRFTQKGNLLRHIKL | -0.379 |
| LRCPICGFECTQKGNLLRHIKL | -0.173 |

| Sequence | log2 fold change of degron read counts |
| --- | --- |
| FGCDICGAMFTQKGNLLRHIKL | -0.933 |
| FNCEQCGANFTQKGNLLRHIKL | -2.37 |
| FMCPICGHKFTQKGNLLRHIKL | 0.415 |
| FTCDVCGAMFTQKGNLLRHIKL | -1.48 |
| FFCDQCGAKFTQKGNLLRHIKL | -1.77 |
| FNCPICGAMFTQKGNLLRHIKL | -0.0463 |
| FNCSVCGHMFTQKGNLLRHIKL | -0.606 |
| FTCNQCGAAFTQKGNLLRHIKL | -1.14 |
| FACEQCGAPFTQKGNLLRHIKL | -2.51 |
| FQCEICGHTFTQKGNLLRHIKL | -3.15 |
| FGCNVCGAFFTQKGNLLRHIKL | 0.665 |
| FGCEICGRIFTQKGNLLRHIKL | -0.075 |
| FCCDQCGAWFTQKGNLLRHIKL | -0.788 |
| FACEICGADFTQKGNLLRHIKL | -1.95 |
| FECEVCGAPFTQKGNLLRHIKL | -1.42 |
| FFCDVCGANFTQKGNLLRHIKL | -0.69 |
